# Laboratory results from the supplement of paper PMC8728848.
# This is one part of the list.
# B1: Epa1-NP-mutant-E227A (Candida glabrata), Q6VBJ0 (protein)
# chain: MILNPALFLNKCVCIYTTLILLLLTNGGYATSSNDISLASKDPTTFPLGCSPDITTPKKGLSMELYSYDFRKKGSYPCWDAAYLDPNYPRTGYKSHRLLAKVDGVTGNINFYYHATKGCTPQLGHLPASYNYPKPLTMTNFTMLLYGYFRPKVTGFHTFTISADDLLFVNFGAGNAFDCCRRDSSADHFGNYQAYAIWGSKTAKDELTVHLDAGVYYPIRLFYNNRAYDGALSFTFKTESNENTVSDFSEYFFSLDDTEEGCPGLISYDSSCASVKTSKIIGIDYHTETPNENLVPITKTIYHLGIPCTGTTTTPLCGSGFYDPLANKCVTINTSSTSSVTKTTSHTTSKEVSFHSSISSQKTLIPKSIPSPYGPIKSQSIPTEMETSSEISSSEYAFSDVISTPSHSPYTKKHSSLNSSSYTSTVIHSLTSYSISQGIFSTSLSEQNITSKSSTDKFSTATSMSNNITQSSIIISQFSTNNENYTTTSMHTSSDKISTETLNNSISTTTSILFSNSSTILKNNTTIISSDKDTHYHPVNPTIVCSTNKTEIICASITQPSISNSNNHWSSSVLKFNSTTVRSTLPSSAGSNETSINVPFSSSTESNTSTSSTSTSNSKMVRSTLPSSAGSNETSISVPFSSSTESNTSTSSTSTSNSKMVRSTLPSSAGSNETSINVPFSSSTESNTSTSSTSTSNSKTVRSTPFSSAGIIMTSLSQRNNKSASSYASSNSKCYNTADSCRKVHSTPSYLLTSSYTSEGVDYDCSLVSTKLKINDTNCVNNKHTTKSCLKTSVTTTIPTLEIKTARKSSSNTIGLHSYPTSSPNKSISSAPIIGYISSFKTIKTASPSYQTSDLTTITTITSLNNPGSTAVENTHESNDKSRKTSSNDISSKHSVIKETKDAVESSNKSHQTNTLKCSSIIIASSSHNSYESLGGTTLTLTLSKVYSPQNNDTLPFLEISEVNPSRTVLPESSKMMQYLTSTEERNKTARNTIATNIVSISTFHFEGEGNAIRMGYTQLLLMLIGIIVMNIGT
# What was measured:
# Test in all cases: glycan array binding signal (z-score within array); higher = stronger binding
# Settings in all cases: glycan notation: IUPAC condensed, linker removed; mutation: E227A
# [1] = molecular target: Fuc(a1-2)[GalNAc(b1-3)]Gal
# Summary of the method: (§1)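 Columns mapping to the same glycan were averaged after glycan names were converted to IUPAC-condensed notation. The data come from 3228 arrays in the Consortium for Functional Glycomics database, limited to those with an available protein sequence. Binding is reported as a within-array Z-score averaged across arrays of one protein sequence and across linkers.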
# Fuc(a1-3)GlcNAc = molecular target: Fuc(a1-3)GlcNAc
# Summary of the method: as §1
# [2] = molecular target: Fuc(a1-3)[Gal(b1-4)]Glc6S
# Summary of the method: as §1
# [3] = molecular target: Fuc(a1-3)[Gal(b1-4)]GlcNAc
# Summary of the method: as §1
# [4] = molecular target: Fuc(a1-3)[Gal(b1-4)]GlcNAc(b1-2)Man
# Summary of the method: as §1
# [5] = molecular target: Fuc(a1-3)[Gal(b1-4)]GlcNAc(b1-2)Man(a1-3)[Fuc(a1-3)[Gal(b1-4)]GlcNAc(b1-2)Man(a1-6)]Man(b1-4)GlcNAc(b1-4)GlcNAc
# Summary of the method: as §1
# [6] = molecular target: Fuc(a1-3)[Gal(b1-4)]GlcNAc(b1-2)Man(a1-3)[Fuc(a1-3)[Gal(b1-4)]GlcNAc(b1-2)Man(a1-6)]Man(b1-4)GlcNAc(b1-4)[Fuc(a1-6)]GlcNAc
# Summary of the method: as §1
# [7] = molecular target: Fuc(a1-3)[Gal(b1-4)]GlcNAc(b1-3)Gal(b1-3)[Fuc(a1-4)]GlcNAc
# Summary of the method: as §1
# [8] = molecular target: Fuc(a1-3)[Gal(b1-4)]GlcNAc(b1-3)Gal(b1-4)[Fuc(a1-3)]GlcNAc
# Summary of the method: as §1
# [9] = molecular target: Fuc(a1-3)[Gal(b1-4)]GlcNAc(b1-3)Gal(b1-4)[Fuc(a1-3)]GlcNAc(b1-3)Gal(b1-4)[Fuc(a1-3)]GlcNAc
# Summary of the method: as §1
# [10] = molecular target: Fuc(a1-3)[Gal(b1-4)]GlcNAc(b1-3)GalNAc
# Summary of the method: as §1
# [11] = molecular target: Fuc(a1-3)[Gal(b1-4)]GlcNAc(b1-6)GalNAc
# Summary of the method: as §1
# [12] = molecular target: Fuc(a1-3)[Gal(b1-4)]GlcNAc(b1-6)[Gal(b1-3)GlcNAc(b1-3)]Gal(b1-4)Glc
# Summary of the method: as §1
# [13] = molecular target: Fuc(a1-3)[Gal(b1-4)]GlcNAc6S
# Summary of the method: as §1
# [14] = molecular target: Fuc(a1-3)[Gal3S(b1-4)]Glc
# Summary of the method: as §1
# [15] = molecular target: Fuc(a1-3)[Gal3S(b1-4)]GlcNAc
# Summary of the method: as §1
# [16] = molecular target: Fuc(a1-3)[Gal3S(b1-4)]GlcNAc6S
# Summary of the method: as §1
# [17] = molecular target: Fuc(a1-3)[GalNAc(b1-4)]GlcNAc
# Summary of the method: as §1
# [18] = molecular target: Fuc(a1-3)[GalNAc(b1-4)]GlcNAc6S
# Summary of the method: as §1
# Fuc(a1-4)GlcNAc = molecular target: Fuc(a1-4)GlcNAc
# Summary of the method: as §1
# Fuc(b1-3)GlcNAc = molecular target: Fuc(b1-3)GlcNAc
# Summary of the method: as §1
# Gal(a1-2)Gal = molecular target: Gal(a1-2)Gal
# Summary of the method: as §1
# Gal(a1-3)Gal = molecular target: Gal(a1-3)Gal
# Summary of the method: as §1
# Gal(a1-3)Gal(b1-3)GlcNAc = molecular target: Gal(a1-3)Gal(b1-3)GlcNAc
# Summary of the method: as §1
# [19] = molecular target: Gal(a1-3)Gal(b1-3)GlcNAc(b1-2)Man
# Summary of the method: as §1
# [20] = molecular target: Gal(a1-3)Gal(b1-3)GlcNAc(b1-2)Man(a1-3)[Gal(a1-3)Gal(b1-3)GlcNAc(b1-2)Man(a1-6)]Man(b1-4)GlcNAc(b1-4)GlcNAc
# Summary of the method: as §1
# [21] = molecular target: Gal(a1-3)Gal(b1-3)GlcNAc(b1-3)GalNAc
# Summary of the method: as §1
# [22] = molecular target: Gal(a1-3)Gal(b1-3)GlcNAc(b1-6)GalNAc
# Summary of the method: as §1
# [23] = molecular target: Gal(a1-3)Gal(b1-3)[Fuc(a1-4)]GlcNAc(b1-2)Man(a1-3)[Gal(a1-3)Gal(b1-3)[Fuc(a1-4)]GlcNAc(b1-2)Man(a1-6)]Man(b1-4)GlcNAc(b1-4)GlcNAc
# Summary of the method: as §1
# Gal(a1-3)Gal(b1-4)Glc = molecular target: Gal(a1-3)Gal(b1-4)Glc
# Summary of the method: as §1
binder,measurement,setting,value
B1,glycan array binding signal (z-score),[1],-0.161
same,glycan array binding signal (z-score),Fuc(a1-3)GlcNAc,-0.218
same,glycan array binding signal (z-score),[2],-0.176
same,glycan array binding signal (z-score),[3],-0.173
same,glycan array binding signal (z-score),[4],-0.202
same,glycan array binding signal (z-score),[5],-0.212
same,glycan array binding signal (z-score),[6],-0.194
same,glycan array binding signal (z-score),[7],-0.199
same,glycan array binding signal (z-score),[8],-0.175
same,glycan array binding signal (z-score),[9],-0.189
same,glycan array binding signal (z-score),[10],-0.162
same,glycan array binding signal (z-score),[11],-0.198
same,glycan array binding signal (z-score),[12],0.173
same,glycan array binding signal (z-score),[13],-0.143
same,glycan array binding signal (z-score),[14],-0.172
same,glycan array binding signal (z-score),[15],-0.186
same,glycan array binding signal (z-score),[16],-0.151
same,glycan array binding signal (z-score),[17],-0.184
same,glycan array binding signal (z-score),[18],-0.199
same,glycan array binding signal (z-score),Fuc(a1-4)GlcNAc,-0.192
same,glycan array binding signal (z-score),Fuc(b1-3)GlcNAc,-0.186
same,glycan array binding signal (z-score),Gal(a1-2)Gal,-0.205
same,glycan array binding signal (z-score),Gal(a1-3)Gal,-0.177
same,glycan array binding signal (z-score),Gal(a1-3)Gal(b1-3)GlcNAc,-0.179
same,glycan array binding signal (z-score),[19],-0.219
same,glycan array binding signal (z-score),[20],-0.142
same,glycan array binding signal (z-score),[21],-0.184
same,glycan array binding signal (z-score),[22],-0.185
same,glycan array binding signal (z-score),[23],-0.138
same,glycan array binding signal (z-score),Gal(a1-3)Gal(b1-4)Glc,-0.196
